Experimental data taken from the supplement of paper PMC11348887.
Structures can show the parent of a compound that is named as a salt. The list shows a part of the results. Rule as the data show it: active = -2 or less and inactive = the rest. Most values come without repeats; read them as rough.

What follows are compounds tested on hPSC-derived cortical neurons (WA09) (assay: nuclei number (viability) z-score; higher = more surviving cells). Conditions: 5 µM; treatment: days 7-14 after plating, readout day 21.
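Also: nuclei counted from DAPI counterstain by automated high-content image analysis, four fields per well at ×20 in 384-well plates, with sequential b-score then z-score normalization.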

Row | Compound | nuclei number (z-score)
1 | C[C@@H]1O[C@@H](O[C@H]2C[C@@H](O)[C@]3(CO)[C@H]4[C@H](O)C[C@]5(C)[C@@H](C6=CC(=O)OC6)CC[C@]5(O)[C@@H]4CC[C@]3(O)C2)[C@H](O)[C@H](O)[C@H]1O [Ouabain] | active: -5.81
2 | CCN(C)C(=O)Oc1cccc([C@H](C)N(C)C)c1 [Rivastigmine] | inactive: -0.351
3 | CCN(C)C(=O)Oc1cccc([C@H](C)N(C)C)c1 [Rivastigmine Tartrate] | inactive: 0.359
4 | CCC1(c2ccc(N)cc2)CCC(=O)NC1=O (centres undefined) [Aminoglutethimide] | inactive: 0.461
5 | C[N+]1(C)[C@@H]2C[C@@H](OC(=O)[C@H](CO)c3ccccc3)C[C@H]1[C@@H]1O[C@@H]12 [Methscopolamine] | inactive: 1.81
6 | C[C@]12CC[C@H](O)C[C@@H]1CC[C@@H]1[C@@H]2CC[C@]2(C)C(=O)CC[C@@H]12 [Epiandrosterone] | inactive: -0.374
7 | CN(C)C(=O)Oc1cc(OC(=O)N(C)C)cc(C(O)CNC(C)(C)C)c1 (centres undefined) [Bambuterol HCl] | inactive: -0.00597
8 | Oc1cc(Cl)ccc1Oc1ccc(Cl)cc1Cl [Triclosan] | inactive: -0.391
9 | C[C@]12N[C@H](Cc3ccccc31)c1ccccc12 [MK-801 (Dizocilpine)] | inactive: 2.1
10 | CC(=O)Nc1ccc(OC[C@](C)(O)C(=O)Nc2ccc([N+](=O)[O-])c(C(F)(F)F)c2)cc1 [Andarine] | inactive: 1.16
11 | C[C@](O)(COc1ccc(C#N)cc1)C(=O)Nc1ccc(C#N)c(C(F)(F)F)c1 | inactive: 0.998
12 | CNCC(=O)c1ccc(O)c(O)c1 [Adrenalone HCl] | inactive: 1.18
13 | CC(C)N(CCNC(=O)CN1CCCC1=O)C(C)C [Pramiracetam] | inactive: 1.29
14 | COC(=O)C1=CCCN(C)C1 [Arecoline] | inactive: 0.794
15 | COc1cc2c(cc1OC)[C@@]13CCN4CC5=CCO[C@H]6CC(=O)N2[C@H]1[C@H]6[C@H]5C[C@H]43 [Brucine sulfate salt hydrate] | inactive: -1.65
16 | C[C@]12CC[C@H]3[C@@H](CC[C@@]45O[C@@H]4C(O)=C(C#N)C[C@]35C)[C@@H]1CC[C@@H]2O [Trilostane] | inactive: -0.0494
17 | COc1ccc2c(c1)/C(=C/c1cnc[nH]1)C(=O)N2 | inactive: -0.121
18 | COc1ccc(C[C@H]2NC[C@H](O)[C@H]2OC(C)=O)cc1 [Anisomycin] | active: -5.26
19 | CCC(COC(=O)c1cc(OC)c(OC)c(OC)c1)(c1ccccc1)N(C)C (centres undefined) [Trimebutine] | inactive: 0.619
